# Experimental data taken from the supplement of paper PMC8728848.
# This is one part of the list.
# B1: GS7807E-bfa-538-23-538 (Bacteroides fragilis) (protein)
# chain: TDSFESFNTNEAGFDNDSKKQDFNYYGIPLGIIQQGIYFNYDWGSGKNWPFQTMQNLGADLFSGYVHDFNPFNEGKNNSTYYMMDGWNGSTWDNTYGYIMPEVQKSETINEKDNIGFFGITKILKVELMHRLSDLYGPIVYTQFGSKTGSTPDTQQEAYKAFFNDLDTGIAKIREYQKANPDIESFAKFDILMPQGKRTFSEWIRFANSLRLRLAVRIAMADSKLAVAEAQKALTDEEGLLEGNDEVVAVSTSSGYTNPFGEINKAWGEVFMNANMESLLVGYEDPRMEKYFDKATGSDATSLIDYKGTYKGIRQGTGFSHKNYNGHSKSTITQQTDAVLMTPAEVWFLRAEAALRGWSSESVKDCYEKGVKASFAQWGAAGAEAYLESDRKPSDYVDAFKAANNVKAVNTLTPKWDDAAGNEDKLGRIITQKWLAMFPEGGEAWAEQRRTGYPRLFPVLVNQSEGTVDTNLGPRRLNFFVGIKTTNPEQYTQLVNALGGIDNCGTRLWWDTGRNF
# Legend:
# Assay in all cases: glycan array binding signal (z-score within array); higher = stronger binding
# Details in all cases: glycan notation: IUPAC condensed, linker removed
# Fuc(a1-2)Gal = target: Fuc(a1-2)Gal
# How it was run: (§1)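 The binding signal is a Z-score computed within each array and averaged over linkers. Arrays of the same protein sequence at different concentrations or buffers were also averaged together. Data originate from 3228 arrays in the Consortium for Functional Glycomics database, kept only where the protein sequence was available.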
# Fuc(a1-2)Gal(b1-3)GalNAc = target: Fuc(a1-2)Gal(b1-3)GalNAc
# How it was run: as §1
# [1] = target: Fuc(a1-2)Gal(b1-3)GalNAc(a1-3)[Fuc(a1-2)]Gal(b1-4)Glc
# How it was run: as §1
# [2] = target: Fuc(a1-2)Gal(b1-3)GalNAc(a1-3)[Fuc(a1-2)]Gal(b1-4)GlcNAc
# How it was run: as §1
# [3] = target: Fuc(a1-2)Gal(b1-3)GalNAc(b1-3)Gal
# How it was run: as §1
# [4] = target: Fuc(a1-2)Gal(b1-3)GalNAc(b1-3)Gal(a1-4)Gal(b1-4)Glc
# How it was run: as §1
# [5] = target: Fuc(a1-2)Gal(b1-3)GalNAc(b1-4)[Neu5Ac(a2-3)]Gal(b1-4)Glc
# How it was run: as §1
# Fuc(a1-2)Gal(b1-3)GlcNAc = target: Fuc(a1-2)Gal(b1-3)GlcNAc
# How it was run: as §1
# [6] = target: Fuc(a1-2)Gal(b1-3)GlcNAc(b1-2)Man(a1-3)[Fuc(a1-2)Gal(b1-3)GlcNAc(b1-2)Man(a1-6)]Man(b1-4)GlcNAc(b1-4)GlcNAc
# How it was run: as §1
# [7] = target: Fuc(a1-2)Gal(b1-3)GlcNAc(b1-2)Man(a1-3)[Fuc(a1-2)Gal(b1-3)GlcNAc(b1-2)Man(a1-6)]Man(b1-4)GlcNAc(b1-4)[Fuc(a1-6)]GlcNAc
# How it was run: as §1
# [8] = target: Fuc(a1-2)Gal(b1-3)GlcNAc(b1-3)Gal(b1-4)Glc
# How it was run: as §1
# [9] = target: Fuc(a1-2)Gal(b1-3)GlcNAc(b1-3)GalNAc
# How it was run: as §1
# [10] = target: Fuc(a1-2)Gal(b1-3)GlcNAc(b1-3)[Fuc(a1-2)Gal(b1-3)GlcNAc(b1-6)]GalNAc
# How it was run: as §1
# [11] = target: Fuc(a1-2)Gal(b1-3)GlcNAc(b1-3)[Gal(b1-4)GlcNAc(b1-6)]Gal(b1-4)Glc
# How it was run: as §1
# [12] = target: Fuc(a1-2)Gal(b1-3)GlcNAc(b1-3)[Neu5Ac(a2-6)Gal(b1-4)GlcNAc(b1-6)]Gal(b1-4)Glc
# How it was run: as §1
# [13] = target: Fuc(a1-2)Gal(b1-3)GlcNAc6S
# How it was run: as §1
# [14] = target: Fuc(a1-2)Gal(b1-3)[Fuc(a1-4)]GlcNAc
# How it was run: as §1
# [15] = target: Fuc(a1-2)Gal(b1-3)[Fuc(a1-4)]GlcNAc(b1-2)Man(a1-3)[Fuc(a1-2)Gal(b1-3)[Fuc(a1-4)]GlcNAc(b1-2)Man(a1-3)]Man(b1-4)GlcNAc(b1-4)GlcNAc
# How it was run: as §1
# [16] = target: Fuc(a1-2)Gal(b1-3)[Fuc(a1-4)]GlcNAc(b1-2)Man(a1-3)[Fuc(a1-2)Gal(b1-3)[Fuc(a1-4)]GlcNAc(b1-2)Man(a1-6)]Man(b1-4)GlcNAc(b1-4)[Fuc(a1-6)]GlcNAc(b1-4)[Fuc(a1-6)]GlcNAc
# How it was run: as §1
# [17] = target: Fuc(a1-2)Gal(b1-3)[Fuc(a1-4)]GlcNAc(b1-3)[Fuc(a1-3)[Gal(b1-4)]GlcNAc(b1-6)]Gal(b1-4)Glc
# How it was run: as §1
# [18] = target: Fuc(a1-2)Gal(b1-3)[Fuc(a1-4)]GlcNAc(b1-3)[Gal(b1-4)GlcNAc(b1-6)]Gal(b1-4)Glc
# How it was run: as §1
# Fuc(a1-2)Gal(b1-4)Glc = target: Fuc(a1-2)Gal(b1-4)Glc
# How it was run: as §1
# Fuc(a1-2)Gal(b1-4)Glc6S = target: Fuc(a1-2)Gal(b1-4)Glc6S
# How it was run: as §1
# Fuc(a1-2)Gal(b1-4)GlcNAc = target: Fuc(a1-2)Gal(b1-4)GlcNAc
# How it was run: as §1
# [19] = target: Fuc(a1-2)Gal(b1-4)GlcNAc(b1-2)Man
# How it was run: as §1
# [20] = target: Fuc(a1-2)Gal(b1-4)GlcNAc(b1-2)Man(a1-3)[Fuc(a1-2)Gal(b1-4)GlcNAc(b1-2)Man(a1-6)]Man(b1-4)GlcNAc(b1-4)GlcNAc
# How it was run: as §1
# [21] = target: Fuc(a1-2)Gal(b1-4)GlcNAc(b1-2)Man(a1-3)[Fuc(a1-2)Gal(b1-4)GlcNAc(b1-2)Man(a1-6)]Man(b1-4)GlcNAc(b1-4)[Fuc(a1-6)]GlcNAc
# How it was run: as §1
# [22] = target: Fuc(a1-2)Gal(b1-4)GlcNAc(b1-2)[Fuc(a1-2)Gal(b1-4)GlcNAc(b1-4)]Man(a1-3)[Fuc(a1-2)Gal(b1-4)GlcNAc(b1-2)Man(a1-6)]Man(b1-4)GlcNAc(b1-4)GlcNAc
# How it was run: as §1
# [23] = target: Fuc(a1-2)Gal(b1-4)GlcNAc(b1-3)Gal(b1-4)GlcNAc
# How it was run: as §1
# [24] = target: Fuc(a1-2)Gal(b1-4)GlcNAc(b1-3)Gal(b1-4)GlcNAc(b1-2)Man(a1-3)[Fuc(a1-2)Gal(b1-4)GlcNAc(b1-3)Gal(b1-4)GlcNAc(b1-2)Man(a1-6)]Man(b1-4)GlcNAc(b1-4)GlcNAc
# How it was run: as §1
binder,measurement,setting,value
B1,glycan array binding signal (z-score),Fuc(a1-2)Gal,-0.69
same,glycan array binding signal (z-score),Fuc(a1-2)Gal(b1-3)GalNAc,-0.7
same,glycan array binding signal (z-score),[1],-0.431
same,glycan array binding signal (z-score),[2],-0.557
same,glycan array binding signal (z-score),[3],-0.644
same,glycan array binding signal (z-score),[4],-0.439
same,glycan array binding signal (z-score),[5],-0.645
same,glycan array binding signal (z-score),Fuc(a1-2)Gal(b1-3)GlcNAc,-0.623
same,glycan array binding signal (z-score),[6],3.42
same,glycan array binding signal (z-score),[7],0.117
same,glycan array binding signal (z-score),[8],-0.602
same,glycan array binding signal (z-score),[9],-0.218
same,glycan array binding signal (z-score),[10],0.796
same,glycan array binding signal (z-score),[11],1.03
same,glycan array binding signal (z-score),[12],1.06
same,glycan array binding signal (z-score),[13],-0.635
same,glycan array binding signal (z-score),[14],-0.622
same,glycan array binding signal (z-score),[15],0.046
same,glycan array binding signal (z-score),[16],-0.121
same,glycan array binding signal (z-score),[17],-0.426
same,glycan array binding signal (z-score),[18],-0.553
same,glycan array binding signal (z-score),Fuc(a1-2)Gal(b1-4)Glc,-0.662
same,glycan array binding signal (z-score),Fuc(a1-2)Gal(b1-4)Glc6S,-0.576
same,glycan array binding signal (z-score),Fuc(a1-2)Gal(b1-4)GlcNAc,-0.678
same,glycan array binding signal (z-score),[19],-0.64
same,glycan array binding signal (z-score),[20],1.21
same,glycan array binding signal (z-score),[21],-0.382
same,glycan array binding signal (z-score),[22],0.002
same,glycan array binding signal (z-score),[23],-0.652
same,glycan array binding signal (z-score),[24],0.102
